{
  "source": "the antibiotic and cytotoxicity screens of Wong et al. (2023)",
  "note": "Some of the results follow.",
  "data": [
    {"test_system": "HSkMC (human skeletal muscle cells)", "assay": "cytotoxicity call (relative viability < 0.9)", "settings": "10 µM", "values": [
      {"smiles": "C[C@@H]1CCCCO[C@@H](CN(C)C(=O)Nc2ccc3c(c2)OCO3)[C@H](C)CN([C@@H](C)CO)C(=O)c2cc(NC(=O)C3CCCCC3)ccc2O1", "cytotoxicity call": "inactive"},
      {"smiles": "C[C@@H]1CN([C@H](C)CO)C(=O)Cc2cc(NC(=O)Nc3ccc4c(c3)OCO4)ccc2O[C@H]1CN(C)Cc1ccc(Cl)c(Cl)c1", "cytotoxicity call": "inactive"},
      {"smiles": "COc1ccc2c3c(n(c2c1)C)[C@H](CO)N(C[C@]13CN(C1)C(=O)c1ccncc1)C(=O)C1CCOCC1", "cytotoxicity call": "inactive"},
      {"smiles": "COc1ccc(S(=O)(=O)Nc2ccc3c(c2)[C@@H]2C[C@@H](CC(=O)NCC4CC4)O[C@H](CO)[C@@H]2O3)cc1", "cytotoxicity call": "inactive"},
      {"smiles": "C[C@H](CO)N1C[C@H](C)[C@H](CN(C)C(=O)[C@H](C)c2ccccc2)OCc2ccccc2-c2c(n(C)c3ccccc23)C1=O", "cytotoxicity call": "inactive"},
      {"smiles": "CNC(CC(C)C)C(=O)NC1C(=O)NC(CC(N)=O)C(=O)NC2C(=O)NC3C(=O)NC(C(=O)NC(C(=O)O)c4cc(O)cc(O)c4-c4cc3ccc4O)C(O)c3ccc(c(Cl)c3)Oc3cc2cc(c3OC2OC(CO)C(O)C(O)C2OC2CC(C)(N)C(O)C(C)O2)Oc2ccc(cc2Cl)C1O.Cl", "note": "(stereo not given)", "cytotoxicity call": "inactive"},
      {"smiles": "Cc1ccc(S(=O)(=O)Nc2ccc3c(c2)CC(=O)N([C@@H](C)CO)C[C@@H](C)[C@@H](CN(C)C(=O)Nc2ccc(C(F)(F)F)cc2)O3)cc1", "cytotoxicity call": "inactive"},
      {"smiles": "Cc1cc(C(=O)Nc2cccc3c2O[C@@H](CN(C)Cc2ccc4c(c2)OCO4)[C@H](C)CN([C@@H](C)CO)C3=O)n(C)n1", "cytotoxicity call": "inactive"},
      {"smiles": "COc1ccc2c3c([nH]c2c1)[C@H](CO)N(C[C@]13CN(C)C1)C(=O)CN1CCOCC1", "cytotoxicity call": "inactive"},
      {"smiles": "C[C@@H]1CN([C@H](C)CO)C(=O)c2cc(NC(=O)CCCCCC(=O)Nc3ccccc3N)ccc2O[C@H]1CN(C)C(=O)Nc1ccc(F)cc1", "cytotoxicity call": "inactive"},
      {"smiles": "Nc1nc(=O)n([C@@H]2O[C@H](CO)[C@@H](O)[C@H]2O)cc1CO", "cytotoxicity call": "inactive"},
      {"smiles": "C[C@@H]1CCCCO[C@H](CN(C)Cc2ccc(C(F)(F)F)cc2)[C@H](C)CN([C@H](C)CO)C(=O)c2cc(NS(=O)(=O)c3cccs3)ccc2O1", "cytotoxicity call": "inactive"},
      {"smiles": "C[N+](C)(C)CCCCNC(=O)[C@H]1C[C@H]2C(=O)N[C@@H](CCCC[N+](C)(C)C)C(=O)N2[C@H]1c1cccc(OCCO)c1", "cytotoxicity call": "inactive"},
      {"smiles": "O=C1NC(=S)NC12CCCCC2", "cytotoxicity call": "inactive"},
      {"smiles": "C[C@H](CO)N1C[C@H](C)[C@H](CN(C)Cc2ccncc2)OCCCC[C@H](C)Oc2ccc(NC(=O)NC3CCCCC3)cc2C1=O", "cytotoxicity call": "inactive"},
      {"smiles": "C[C@@H]1CN([C@@H](C)CO)C(=O)Cc2cc(NC(=O)CCN3CCOCC3)ccc2O[C@H]1CN(C)Cc1ccc(C(=O)O)cc1", "cytotoxicity call": "inactive"},
      {"smiles": "CCN1[C@@H]2c3ccc(-c4ccncc4)c(=O)n3C[C@@H]2[C@@H](CO)[C@@H]1C(=O)NCCc1cn(C)cn1", "cytotoxicity call": "inactive"},
      {"smiles": "C[C@@H]1CN([C@@H](C)CO)C(=O)c2ccccc2-c2ccccc2CO[C@@H]1CN(C)C(=O)N[C@H](C)c1ccccc1", "cytotoxicity call": "inactive"},
      {"smiles": "C[C@@H]1CN([C@@H](C)CO)C(=O)c2cc(/C=C/c3ccccc3)cnc2O[C@@H]1CN(C)C(=O)C1CCOCC1", "cytotoxicity call": "inactive"},
      {"smiles": "C[C@@H]1CN([C@@H](C)CO)C(=O)Cc2cc(NC(=O)Nc3ccc(F)cc3)ccc2O[C@@H]1CN(C)Cc1ccc(Cl)c(Cl)c1", "cytotoxicity call": "active"},
      {"smiles": "C[C@H](CO)N1C[C@H](C)[C@@H](CN(C)C(=O)Cc2ccccn2)Oc2ncc(-c3cccc(C(=O)N(C)C)c3)cc2C1=O", "cytotoxicity call": "inactive"},
      {"smiles": "CCCN(C)C[C@@H]1OCCCC[C@H](C)Oc2ccc(NS(C)(=O)=O)cc2C(=O)N([C@@H](C)CO)C[C@H]1C", "cytotoxicity call": "inactive"},
      {"smiles": "C[C@H]1CCCCO[C@@H](CN(C)CC2CCCCC2)[C@@H](C)CN([C@@H](C)CO)C(=O)c2cc(NC(=O)c3ccncc3)ccc2O1", "cytotoxicity call": "inactive"},
      {"smiles": "Cc1ccc(S(=O)(=O)N(C)C[C@@H]2OCCCC[C@H](C)Oc3ccc(NC(=O)Nc4ccccc4)cc3C(=O)N([C@H](C)CO)C[C@H]2C)cc1", "cytotoxicity call": "inactive"},
      {"smiles": "CN(Cc1ccc(C(C)(C)C)cc1)Cc1cccc2ccccc12.Cl", "cytotoxicity call": "inactive"},
      {"smiles": "CN1C[C@@H](CO)Oc2ccccc21", "cytotoxicity call": "inactive"},
      {"smiles": "CC(C)Cc1cc(CN)on1", "cytotoxicity call": "inactive"},
      {"smiles": "C[C@@H]1CN([C@H](C)CO)C(=O)c2ccccc2-c2ccccc2CO[C@H]1CN(C)C(=O)Nc1cccc(C(F)(F)F)c1", "cytotoxicity call": "inactive"},
      {"smiles": "C[C@H](CO)N1C[C@H](C)[C@@H](CN(C)S(=O)(=O)c2ccc(F)cc2)Oc2ccc(NS(C)(=O)=O)cc2CC1=O", "cytotoxicity call": "inactive"},
      {"smiles": "C[C@H](CO)N1C[C@H](C)[C@@H](CN(C)Cc2ccc(Cl)c(Cl)c2)OCCCC[C@H](C)Oc2ccc(NC(=O)Nc3cccc4ccccc34)cc2C1=O", "cytotoxicity call": "inactive"},
      {"smiles": "C[C@H](CO)N1C[C@H](C)[C@@H](CN(C)S(=O)(=O)c2ccc(Oc3ccccc3)cc2)OCc2cnnn2CCCC1=O", "cytotoxicity call": "inactive"},
      {"smiles": "Cc1ccc(S(=O)(=O)N(C)C[C@@H]2Oc3ccc(NC(=O)c4ccncc4)cc3C(=O)N([C@H](C)CO)C[C@H]2C)cc1", "cytotoxicity call": "inactive"},
      {"smiles": "O=[N+]([O-])c1ccc(/C=C/CN(C/C=C/c2ccc([N+](=O)[O-])cc2)CCCCNS(=O)(=O)c2cccc3cnccc23)cc1", "cytotoxicity call": "inactive"},
      {"smiles": "CCC(=O)Nc1ccc2c(c1)OC[C@@H](C)N(S(=O)(=O)c1cn(C)cn1)C[C@@H](C)[C@H](OC)CN(C)C2=O", "cytotoxicity call": "inactive"},
      {"smiles": "CC1(C)S[C@H]2[C@@H](NC(=O)[C@@H](N)c3ccccc3)C(=O)N2[C@@H]1C(=O)O", "cytotoxicity call": "inactive"},
      {"smiles": "COc1ccc(COC[C@]23N=C4SCc5ccccc5C(=O)N4[C@H](c4ccccc4O2)[C@H]3CO[Si](C)(C)C(C)(C)C)cc1", "cytotoxicity call": "inactive"},
      {"smiles": "C[C@@H]1CN([C@H](C)CO)C(=O)c2cccc(NC(=O)c3cnccn3)c2O[C@H]1CN(C)Cc1ccc2c(c1)OCO2", "cytotoxicity call": "inactive"},
      {"smiles": "C[C@@H]1CCCCO[C@@H](CN(C)S(=O)(=O)c2ccc(F)cc2)[C@@H](C)CN([C@H](C)CO)C(=O)c2cc(NC(=O)Nc3ccc(F)cc3)ccc2O1", "cytotoxicity call": "inactive"},
      {"smiles": "CCCC(=O)Nc1ccc2c(c1)OC[C@@H](C)N(Cc1ccc(-c3ccccn3)cc1)C[C@H](C)[C@H](OC)CN(C)C2=O", "cytotoxicity call": "inactive"},
      {"smiles": "C[C@@H]1CN([C@H](C)CO)C(=O)c2cc(NC(=O)NC3CCCCC3)ccc2O[C@@H](C)CCCCO[C@@H]1CN(C)C(=O)CCC(F)(F)F", "cytotoxicity call": "inactive"}
    ]}
  ]
}
